Among the data in the antibiotic and cytotoxicity screens of Wong et al. (2023) are cytotoxicity call values, retold here.

The list shows a part of the results.

This experiment deals with HepG2. Briefly: cytotoxicity call (relative viability < 0.9). Particulars: 10 µM.
On to `COc1ccc(CN(C)C[C@@H]2Oc3c(NC(=O)c4ccc(-c5nccs5)cc4)cccc3C(=O)N([C@@H](C)CO)C[C@H]2C)cc1`, for which the cytotoxicity call is “active”.
In the case of `CO[C@@H]1CN(C)C(=O)c2cc(NS(C)(=O)=O)ccc2OC[C@@H](C)N(S(=O)(=O)CC(F)(F)F)C[C@H]1C` it was “inactive”; in that of `C[C@@H]1CN([C@H](C)CO)C(=O)CCCn2cc(nn2)CO[C@H]1CN(C)C(=O)Nc1ccc(N2CCN(C)CC2)cc1`, “inactive”.
On to `C[C@@H]1CN([C@@H](C)CO)C(=O)Cc2cc(NC(=O)CCCCCC(=O)Nc3ccccc3N)ccc2O[C@@H]1CN(C)C(=O)Nc1ccccc1`, for which the cytotoxicity call was “inactive”.
As for `CC(C)C[C@H](NC(=O)[C@H](CCCCN)NC(=O)[C@H](CCCNC(=N)N)NC(=O)[C@H](C)NC(=O)[C@H](CO)NC(=O)[C@H](CCCCN)NC(=O)[C@H](CCCNC(=N)N)NC(=O)[C@H](C)NC(=O)CNC(=O)[C@@H](NC(=O)[C@H](Cc1ccccc1)NC(=O)CNC(=O)CNC(=O)[C@@H](N)Cc1ccccc1)[C@@H](C)O)C(=O)N[C@@H](C)C(=O)N[C@@H](CC(N)=O)C(=O)N[C@@H](CCC(N)=O)C(=O)O`, the entry is “inactive”; as for `CN1CCN(C(=O)C[C@H]2C[C@@H]3c4cc(NC(=O)c5ccc6c(c5)OCO6)ccc4O[C@@H]3[C@@H](CO)O2)CC1`, “inactive”.
As for `CCC[C@@H](O)C#Cc1cnc2c(c1)C(=O)N([C@H](C)CO)C[C@H](C)[C@H](CN(C)C(=O)Nc1ccc3c(c1)OCO3)O2`, the entry is “inactive”; as for `C[C@@H]1CN([C@H](C)CO)C(=O)c2cc(NC(=O)Nc3ccccc3)ccc2O[C@@H](C)CCCCO[C@@H]1CN(C)S(=O)(=O)c1ccccc1`, “inactive”; as for `CCCNC(=O)Cc1nnc[nH]1`, “inactive”.
As for `CC(C)NC(=O)Nc1ccc2c(c1)C(=O)N([C@H](C)CO)C[C@@H](C)[C@H](CN(C)Cc1ccc(C(=O)O)cc1)O2`, the entry is “inactive”; as for `COc1ccc(CN(C)C[C@H]2OCCCC[C@H](C)Oc3ccc(NC(=O)NC4CCCCC4)cc3C(=O)N([C@@H](C)CO)C[C@H]2C)cc1`, “active”.
For the molecule `C[C@H]1CN([C@@H](C)CO)C(=O)c2cc(NC(=O)Nc3ccc(C(F)(F)F)cc3)ccc2O[C@@H]1CN(C)C(=O)Nc1ccc2c(c1)OCO2`, the cytotoxicity call is “active”.
In the case of `Cc1noc(C)c1NC(=O)N(C)C[C@@H]1Oc2ccc(NS(=O)(=O)c3cn(C)cn3)cc2CC(=O)N([C@H](C)CO)C[C@H]1C` it was “inactive”.
In the case of `CNC[C@@H]1OCCCC[C@@H](C)Oc2ccc(NS(=O)(=O)c3cn(C)cn3)cc2C(=O)N([C@H](C)CO)C[C@H]1C` it was “inactive”; in that of `C[C@@H]1CN([C@H](C)CO)C(=O)c2cc(NC(=O)C3CC3)ccc2O[C@@H]1CN(C)Cc1ccc(-c2ccccc2)cc1`, “inactive”.
In the case of `C[C@@H]1CN([C@@H](C)CO)S(=O)(=O)c2ccc(C#Cc3ccncc3)cc2O[C@H]1CN(C)C(=O)Nc1ccc2c(c1)OCO2` it was “active”.
On to `COc1ccc(NC(=O)Nc2ccc3c(c2)C(=O)N([C@H](C)CO)C[C@@H](C)[C@@H](CN(C)Cc2ccc4c(c2)OCO4)OCCCC[C@@H](C)O3)cc1`, for which the cytotoxicity call is “active”.
In the case of `Cc1noc(C)c1NC(=O)N(C)C[C@@H]1Oc2ccc(NC(=O)NC(C)C)cc2CC(=O)N([C@@H](C)CO)C[C@H]1C` it was “inactive”; in that of `C[C@H]1CN([C@@H](C)CO)C(=O)c2cc(-c3cccc(C(=O)N(C)C)c3)cnc2O[C@H]1CN(C)S(=O)(=O)c1ccccc1`, “inactive”.
In the case of `CC[C@@H]1/C=C(\C)C[C@H](C)C[C@H](OC)[C@H]2O[C@@](O)(C(=O)C(=O)N3CCCC[C@H]3C(=O)O[C@H](/C(C)=C/[C@@H]3CC[C@H](Cl)[C@H](OC)C3)[C@H](C)[C@@H](O)CC1=O)[C@H](C)C[C@@H]2OC` it was “inactive”; in that of `CCCC(=O)Nc1ccc2c(c1)C(=O)N(C)C[C@@H](OC)[C@H](C)CN(C(=O)CN1CCOCC1)[C@H](C)CO2`, “inactive”; in that of `C[C@@H]1CN([C@@H](C)CO)C(=O)Cc2cc(NS(=O)(=O)c3cccs3)ccc2O[C@H]1CN(C)C(=O)Nc1cccc2ccccc12`, “inactive”.
In the case of `C[C@H](O)C#Cc1cnc2c(c1)C(=O)N([C@H](C)CO)C[C@@H](C)[C@@H](CN(C)C(=O)CN1CCOCC1)O2`, the cytotoxicity call is “inactive”.
In the case of `COCCOC(=O)N1C(=O)[C@@]2(c3cc(C#CC4=CCCCC4)ccc31)[C@H](c1ccccc1OCCO)N1[C@H](c3ccccc3)[C@H](c3ccccc3)OC(=O)[C@H]1[C@@H]2C(=O)NC[C@H](O)c1ccccc1` it was “inactive”; in that of `C[C@H]1CN([C@@H](C)CO)C(=O)c2cccc(NC(=O)c3ccc(-c4nccs4)cc3)c2O[C@H]1CN(C)Cc1ccc(C(F)(F)F)cc1`, “inactive”; in that of `CCC(=O)N1C[C@]2(CN(C2)C(=O)CN2CCOCC2)c2c([nH]c3cc(ccc23)OC)[C@@H]1CO`, “inactive”.
In the case of `Cc1ccccc1S(=O)(=O)N1C[C@H](O)COC[C@H]2O[C@H](CC(=O)N3CCN(C)CC3)CC[C@@H]21` it was “inactive”.
In the case of `Cc1noc(C)c1S(=O)(=O)Nc1ccc2c(c1)C(=O)N([C@@H](C)CO)C[C@@H](C)[C@@H](CN(C)Cc1ccc(C(F)(F)F)cc1)OCCCC[C@@H](C)O2` it was “inactive”; in that of `CN(C)CCC(c1ccc(Br)cc1)c1ccccn1.O=C(O)C=CC(=O)O` (stereo not given), “active”; in that of `Cc1ccc(S(=O)(=O)N(C)C[C@H]2Oc3ncc(-c4ccncc4)cc3C(=O)N([C@H](C)CO)C[C@H]2C)cc1`, “inactive”.
On to `CO[C@@H]1CN(C)C(=O)c2cc(NC(=O)c3ccc(F)cc3)ccc2OC[C@H](C)N(C(=O)CN(C)C)C[C@@H]1C`, for which the cytotoxicity call was “inactive”.
In the case of `CNC(=O)C[C@H]1CC[C@@H]2[C@H](COC[C@@H](O)CN2C(=O)c2ccccn2)O1` it was “inactive”; in that of `COc1ccc(NC(=O)N(C)C[C@@H]2OCCCC[C@H](C)Oc3ccc(NC(=O)CCC(F)(F)F)cc3C(=O)N([C@@H](C)CO)C[C@@H]2C)cc1`, “inactive”; in that of `CC(C)[C@@H](CC[C@@H](C)[C@H]1CC[C@H]2[C@@H]3[C@H](O)C[C@H]4C[C@@H](NCCCNCCCCN)CC[C@]4(C)[C@H]3CC[C@]12C)OS(=O)(=O)O`, “active”.
In the case of `COCCN1C[C@]23CN(C(=O)COC)C[C@@H](C[C@H]2S1(=O)=O)O3`, the cytotoxicity call was “inactive”.
For the molecule `C[C@H]1CCCCO[C@H](CN(C)C(=O)Nc2cccc3ccccc23)[C@@H](C)CN([C@@H](C)CO)C(=O)c2cc(NS(=O)(=O)c3ccc(Cl)cc3)ccc2O1`, the cytotoxicity call is “inactive”.
In the case of `C[C@@H]1CN([C@@H](C)CO)C(=O)Cc2cc(NC(=O)Cn3cnnn3)ccc2O[C@@H]1CN(C)S(=O)(=O)c1ccccc1` it was “inactive”; in that of `Cn1cnc(S(=O)(=O)N[C@H]2CC[C@@H](CC(=O)NCC3CC3)O[C@H]2CO)c1`, “inactive”.
Take `O=C(O)/C=C\C(=O)NCc1cccnc1`: the cytotoxicity call is “inactive”.
In the case of `C[C@@H]1CCCCO[C@@H](CN(C)C(=O)CCC(F)(F)F)[C@H](C)CN([C@@H](C)CO)C(=O)c2cc(NC(=O)NC3CCCCC3)ccc2O1` it was “inactive”.
